Measured values: the supplement of paper PMC4967469

What was measured:
Assay in all cases: Viability of human cancer cell lines after 72 h of drug (GDSC screen)
[1] = compound: Cc1cc(C(C)Nc2ccccc2)c2nc(N3CCOCC3)cc(=O)n2c1 [TGX221]; conditions: top dose 10 µM
Description: (§1)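 Human cancer cell lines in 384-well plates, medium with 10% serum, drug for 72 h over a 256-fold dose range (nine 2-fold or five 4-fold steps up to the top dose). Adherent lines were fixed and stained with the nucleic acid dye Syto60, suspension lines read with resazurin; signal relative to control wells, capped at 0 and 100%. One two-parameter sigmoid per drug and line, fitted in a mixed model over all curves with the slope shared within a line.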

[2] = compound: CN(C)CCOc1ccc(-c2nc(-c3ccncc3)c(-c3ccc4c(c3)CC/C4=N\O)[nH]2)cc1 [SB590885]; conditions: top dose 5 µM; top dose inferred
Description: as §1

[3] = compound: CS(=O)(=O)CCNCc1ccc(-c2ccc3ncnc(Nc4ccc(OCc5cccc(F)c5)c(Cl)c4)c3c2)o1 [Lapatinib]; conditions: top dose 2 µM
Description: as §1

[4] = compound: CCN(CC)CCCCNc1ncc2cc(-c3cc(OC)cc(OC)c3)c(NC(=O)NC(C)(C)C)nc2n1 [PD-173074]; conditions: top dose 2 µM; top dose inferred
Description: as §1

| Cell Line | AUC [1] | IC50 [1] [µM] | AUC [2] | IC50 [2] [µM] | AUC [3] | IC50 [3] [µM] | AUC [4] | IC50 [4] [µM] |
| --- | --- | --- | --- | --- | --- | --- | --- | --- |
| HD-MY-Z (Hodgkin lymphoma, adherent) | 0.956 | > 10 | 0.959 | > 5 | 0.975 | > 2 | 0.986 | > 2 |
| HDLM-2 (Hodgkin lymphoma, suspension) | 0.984 | > 10 | 0.987 | > 5 | 0.938 | > 2 | 0.95 | > 2 |
| HH (T-cell leukaemia, suspension) | 0.861 | > 10 | 0.969 | > 5 | 0.973 | > 2 | 0.944 | > 2 |
| HL-60 (acute myeloid leukaemia, suspension) | 0.962 | > 10 | 0.956 | > 5 | 0.99 | > 2 | 0.968 | > 2 |
| HOP-62 (lung adenocarcinoma, adherent) | 0.973 | > 10 | 0.985 | > 5 | 0.972 | > 2 | 0.987 | > 2 |
| HSC-39 (stomach, suspension) | 0.991 | > 10 | 0.968 | > 5 | 0.987 | > 2 | 0.251 | 0.0273 |
| HT (B-cell lymphoma, suspension) | 0.93 | > 10 | 0.962 | > 5 | 0.989 | > 2 | 0.981 | > 2 |
| HT-144 (melanoma, adherent) | 0.904 | > 10 | 0.552 | 0.439 | 0.984 | > 2 | 0.981 | > 2 |
| HUTU-80 (digestive system, adherent) | 0.961 | > 10 | 0.991 | > 5 | 0.975 | > 2 | 0.944 | > 2 |
| IM-9 (myeloma, suspension) | 0.991 | > 10 | 0.98 | > 5 | 0.992 | > 2 | 0.985 | > 2 |
| IMR-5 (neuroblastoma, adherent) | 0.992 | > 10 | 0.974 | > 5 | 0.992 | > 2 | 0.989 | > 2 |
| IST-MEL1 (melanoma, adherent) | 0.71 | 2.77 | 0.894 | > 5 | 0.902 | > 2 | 0.979 | > 2 |
| IST-SL1 (small cell lung carcinoma, semi-adherent) | 0.987 | > 10 | 0.986 | > 5 | 0.969 | > 2 | 0.987 | > 2 |
| IST-SL2 (small cell lung carcinoma, suspension) | 0.942 | > 10 | 0.989 | > 5 | 0.969 | > 2 | 0.966 | > 2 |
| JAR (urogenital system, adherent) | 0.919 | > 10 | 0.969 | > 5 | 0.985 | > 2 | 0.984 | > 2 |
| JJN-3 (haematopoietic neoplasm, suspension) | 0.992 | > 10 | 0.992 | > 5 | 0.993 | > 2 | 0.991 | > 2 |
| JM1 (B-cell lymphoma, suspension) | 0.979 | > 10 | 0.922 | > 5 | 0.99 | > 2 | 0.98 | > 2 |
| JURL-MK1 (chronic myeloid leukaemia, suspension) | 0.986 | > 10 | 0.987 | > 5 | 0.979 | > 2 | 0.89 | > 2 |
| JVM-2 (lymphoid neoplasm, suspension) | 0.97 | > 10 | 0.96 | > 5 | 0.978 | > 2 | 0.933 | > 2 |
| JVM-3 (lymphoid neoplasm, suspension) | 0.987 | > 10 | 0.952 | > 5 | 0.987 | > 2 | 0.943 | > 2 |
| JiyoyeP-2003 (Burkitt lymphoma, suspension) | 0.988 | > 10 | 0.977 | > 5 | 0.99 | > 2 | 0.981 | > 2 |
| KARPAS-45 (lymphoblastic leukaemia, suspension) | 0.935 | > 10 | 0.983 | > 5 | 0.991 | > 2 | 0.93 | > 2 |
| KARPAS-231 (B-cell leukaemia, suspension) | 0.915 | 8.72 | 0.994 | > 5 | 0.99 | > 2 | 0.979 | > 2 |
| KARPAS-299 (anaplastic large cell lymphoma, suspension) | 0.992 | > 10 | 0.98 | > 5 | 0.991 | > 2 | 0.972 | > 2 |
| KARPAS-422 (B-cell lymphoma, suspension) | 0.8 | 4.75 | 0.978 | > 5 | 0.988 | > 2 | 0.972 | > 2 |
| KCL-22 (chronic myeloid leukaemia, suspension) | 0.991 | > 10 | 0.991 | > 5 | 0.985 | > 2 | 0.991 | > 2 |
| KE-37 (lymphoblastic leukaemia, suspension) | 0.994 | > 10 | 0.975 | > 5 | 0.994 | > 2 | 0.914 | 1.69 |
| KELLY (neuroblastoma, adherent) | 0.989 | > 10 | 0.966 | > 5 | 0.986 | > 2 | 0.964 | > 2 |
| KG-1 (acute myeloid leukaemia, suspension) | 0.978 | > 10 | 0.989 | > 5 | 0.99 | > 2 | 0.531 | 0.15 |
| KGN (ovary, adherent) | 0.853 | > 10 | 0.981 | > 5 | 0.969 | > 2 | 0.968 | > 2 |

Lines with a small IC50 respond at low doses; a limit (>, <) means that the fit lies beyond the doses tested. AUC, from the same fit, is the share of area under the viability curve across the 256-fold dose range: 1 means no effect, lower means more sensitive. For part of these data: Where the top dose is marked as inferred, it comes from the curve model; the source does not state it.
